Measurements reported in patent US20190300591A1 (ALTOR BIOSCIENCE, published 2019).

Target: T1, IL-21/IL-15RαSu/Fc fusion protein (human, glycosylated (CHO cell produced))
T1 construct: In the Western blot it is the reduced, SDS-denatured single chain
Test: co-expression in CHO cells; complex purified by Protein A and size exclusion chromatography

B1: IL-7/IL-15N72D fusion protein (other)
chain: DCDIEGKDGKQYESVLMVSIDQLLDSMKEIGSNCLNNEFNFFKRHICDANKEGMFLFRAARKLRQFLKMNSTGDFDLHLLKVSEGTTILLNCTGQVKGRKPAALGEAQPTKSLEENKSLKEQKKLNDLCFLKRLLQEIKTCWNKILMGTKEH[… about 120 residues …]
modifications: glycosylated (CHO cell produced)
notes: One of the two chains of hIL7/IL21/TxM; In the Western blot it is the reduced, SDS-denatured chain
B1: binds.
